According to the supplement of paper PMC7125110:
± gives the standard error. Variants at the background level are over-represented here.

B1: glmS ribozyme (parent)
chain: AUAAAAGCGCCAGAACUACAGAAAUGUAGUUGACGAGGAGGAGGUUUAUCGAAUUUUCGGCGGAUGCCUCCAAA

Columns and labels:
Details in all cases: with glucosamine-6-phosphate
glucosamine-6-phosphate [1] = variants of: B1; assay: self-cleavage kobs at 640 uM GlcN6P; higher = faster cleavage; RNA array
How it was run: (§1)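 In situ transcription by E. coli RNA polymerase produced barcoded ribozyme variants on sequenced MiSeq chips, and a hybridised Cy3 probe tracked them at 37 °C. Glucosamine-6-phosphate was flowed in at 40 μM to 10 mM in HEPES/KCl/Mg(OAc)2 buffer. kcat and KM were taken from weighted Michaelis–Menten fits of kobs values from exponential decay fits.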

glucosamine-6-phosphate [2] = variants of: B1; assay: self-cleavage kobs at 2500 uM GlcN6P; higher = faster cleavage; RNA array
How it was run: as §1

glucosamine-6-phosphate [3] = variants of: B1; assay: self-cleavage kobs at 10000 uM GlcN6P; higher = faster cleavage; RNA array
How it was run: as §1

glucosamine-6-phosphate [4] = variants of: B1; assay: self-cleavage kobs at 160 uM GlcN6P; higher = faster cleavage; RNA array
How it was run: as §1

Variant | self-cleavage kobs at 640 uM GlcN6P (glucosamine-6-phosphate [1]) [s⁻¹] | self-cleavage kobs at 2500 uM GlcN6P (glucosamine-6-phosphate [2]) [s⁻¹] | self-cleavage kobs at 10000 uM GlcN6P (glucosamine-6-phosphate [3]) [s⁻¹] | self-cleavage kobs at 160 uM GlcN6P (glucosamine-6-phosphate [4]) [s⁻¹]
AUAAAAGCGCCCGAACUACAGAAAUGUAGUUGACGACAAGGAGGUUUAUCGAAUUUUCGGCGGUUGCCUCCAAA [A12C G37C G38A A64U] | < 1e-05 | – | – | –
AUAAAAGCGCCCGAACUACAGAAAUGUAGUUGACGAGUAGGAGGUAUCUCGAAUUUUCGGCGGAUGCCUCCAAA [A12C G38U U46A A48C] | < 1e-05 | – | – | –
AUAAAAGCGCCCGAACUACAGAAAUGUAGUUGACGAGGAAGAGGUUUAUCUAUUUUUCGGCGGAUGCCUCCAAA [A12C G40A G51U A53U] | < 1e-05 | < 1e-05 | – | –
AUAAAAGCGCCCGAACUACAGAAAUGUAGUUGACGAGGAGAUGGUUUAUCCAAUUUUCGGCGGAUGCGUUCAAA [A12C G41A A42U G51C C68G C70U] | < 1e-05 | – | – | –
AUAAAAGCGCCCGAACUACAGAAAUGUAGAUGACAAGGAGGAGGUUUAUCGAAUUUUCGGCGGAUGCCUCCAAA [A12C U30A G35A] | < 1e-05 | – | – | –
AUAAAAGCGCCCGAACUACAGAAAUGUAGCUGACGUGGAGGAGGUUUAUCGAAUUUUCGGCGGAUGCCUCCAAA [A12C U30C A36U] | < 1e-05 | < 1e-05 | < 1e-05 | –
AUAAAAGCGCCCGAACUACAGAAAUGUAGUUGACGAGGAGGAGGUAUAUCGUAUUUUCGGCGGAUGCCUGCAAA [A12C U46A A52U C70G] | < 1e-05 | – | – | –
AUAAAAGCGCCCGAACUACAGAAAUGUAGUUGACGAGGAGGAGGUUUAUCGAAUUUACGGCGGAUGCCUCCAAA [A12C U57A] | 5.75e-05 ± 1.5e-05 | 6.14e-05 ± 1.2e-05 | 0.000113 ± 1.9e-05 | –
AUAAAAGCGCCGGAUCUACAGAAAUGUAGUUGACGAGGAGGAGGCUUAUCGAAUUUUCAGCGGAUGCCUCCAAA [A12G A15U U45C G59A] | < 1e-05 | < 1e-05 | – | –
AUAAAAGCGCCGGAACUACAGAAAUGUAGUUGGCGAGGAGGAGGUUUAUCGAAUUUUCGGCGGAUGCCUCCAAA [A12G A33G] | < 1e-05 | < 1e-05 | < 1e-05 | < 1e-05
AUAAAAGCGCCGGAACUACAGAAAUGUAGUUGACGUGGAGGAGGUUUAUCGAAUUUUCGGCGGAUGCCUCCAAA [A12G A36U] | < 1e-05 | – | – | –
AUAAAAGCGCCGGAACUACAGAAAUGUAGUUGACGAGGAGGAGGUUUAUCGAAUUUUCGGCGGAUGGCUCCAAA [A12G C67G] | 8.36e-05 ± 8.2e-06 | 0.000182 ± 1.7e-05 | 0.000273 ± 1.9e-05 | 2.45e-05 ± 1.1e-05
AUAAAAGCGCCGAAACUACAGAAAUGUAAUUGACGAGGAGGAGGUUUAUCGAAUUGUCGUCGGAUGCCUCCAAA [A12G G13A G29A U56G G60U] | < 1e-05 | < 1e-05 | – | –
AUAAAAGCGCCGCAACUACAGAAAUGUAGUUGACGAGGAGGAGGUUUAUCAAAUUUUCGGCGGAUGCCCCCAAA [A12G G13C G51A U69C] | < 1e-05 | < 1e-05 | – | –
AUAAAAGCGCCGGAACUACAGAAAUGUAGUUAACGUGGAGGAGGUUUAUCGAAUUUUCGGCGGAUGCCUCCAAA [A12G G32A A36U] | < 1e-05 | – | < 1e-05 | < 1e-05
AUAAAAGCGCCGGAACUACAGAAAUGUAGUUUACGAGGAGGAGGUUUAUCGAAUUUUCGGCGGAUGCCUCCAAA [A12G G32U] | 0.000164 ± 1.8e-05 | 0.00055 ± 5.4e-05 | 0.00144 ± 0.00014 | 4.1e-05 ± 8.1e-06
AUAAAAGCGCCGGAACUACAGAAAUGUAGUUGACUAGGAGGAGGUUUAUCGAAUUUUCGGCGGACGCCUCCAAA [A12G G35U U65C] | < 1e-05 | – | – | –
AUAAAAGCGCCGGAACUACAGAAAUGUAGUUGACGAGCCGGAGGUUUAUCGAAUUUUCGGCGGAUGCUUGUAAA [A12G G38C A39C C68U C70G C71U] | < 1e-05 | < 1e-05 | – | < 1e-05
AUAAAAGCGCCGGAACUACAGAAAUGUAGUUGACGAGGAUGCGGUUUAUCGAAUUUUCGGCGGAUGCCUCCAAA [A12G G40U A42C] | < 1e-05 | – | – | < 1e-05

Variant | self-cleavage kobs at 640 uM GlcN6P (glucosamine-6-phosphate [1]) [s⁻¹] | self-cleavage kobs at 2500 uM GlcN6P (glucosamine-6-phosphate [2]) [s⁻¹] | self-cleavage kobs at 10000 uM GlcN6P (glucosamine-6-phosphate [3]) [s⁻¹] | self-cleavage kobs at 160 uM GlcN6P (glucosamine-6-phosphate [4]) [s⁻¹]
AUAAAAGCGCCGGAACUACAGAAAUGUAGUUGACGAGGAGGAGUUUUAUCGAAUUUUCGGCGGAUGCCUGCAAA [A12G G44U C70G] | < 1e-05 | < 1e-05 | – | –
AUAAAAGCGCCGGAACUACAGAAAUGUAGUUGACGAGGAGGAGGUUUAUCGAAUUUUCCGCGCAUGACUCCAAA [A12G G59C G63C C67A] | < 1e-05 | < 1e-05 | – | < 1e-05
AUAAAAGCGCCGGAACUACAGAAAUGUAGUCGACGACGAGGAGGUUUAUCGAAUUUUCGGCGGAUGCCUCCAAA [A12G U31C G37C] | < 1e-05 | < 1e-05 | – | –
AUAAAAGCGCCGGAACUACAGAAAUGUAGUUGACGAGGAGGAGGUUCAUCGAAUUUUCGGCGGAUGCCUCCAAA [A12G U47C] | 0.000111 ± 1.5e-05 | 0.000412 ± 8.3e-05 | 0.000577 ± 6.1e-05 | 3.52e-05 ± 1.3e-05
AUAAAAGCGCCUGCACUACAGAAAUGUAGUUGACGAGGACGAGGUUUAUCGAAUUUUCGGCGUAUGCCUCCAAA [A12U A14C G40C G63U] | < 1e-05 | – | – | –
AUAAAAGCGCCUGACCUACAGAAAUGUAGUUGACGAGGAGGGGGUUUAUCGAAUUUUCGGCGGAUGCCUCCAAA [A12U A15C A42G] | 0.00381 ± 0.0017 | 0.0282 ± 0.014 | – | 0.00123 ± 0.0005
AUAAAAGCGCCUGACCUACAGAAAUGUAGUUGACGAGGAGGAGGUUUAUCGAAUUUUCGGCGGAUGCCUCAAAA [A12U A15C C71A] | 0.000661 ± 0.00015 | 0.0015 ± 0.00053 | – | –
AUAAAAGCGCCUGAGCUACAGAAAUGUAUUUGACGAGGAUGAGGUUUAUCGAAUUCUCGGCGGAUGCCUCCAAA [A12U A15G G29U G40U U56C] | < 1e-05 | – | – | –
AUAAAAGCGCCUGAUCUACAGAAAUGUAGUUGACGAGGAGGAGGUUUAUCGAAUUUUCGGCGGAUGCGUCCAAA [A12U A15U C68G] | 8.06e-05 ± 2.7e-05 | – | – | –
AUAAAAGCGCCUGAACUACAGAAAUGUAGUUGCCGACGAGGAGGUUUAUCGAAUUAUCGGCGGAUGCCUCCAAA [A12U A33C G37C U56A] | < 1e-05 | – | – | –
AUAAAAGCGCCUGAACUACAGAAAUGUAGUUGUCGAGGAGGAGGUUUAUCGAAUUUUCGGCGGAUGCCUCCAAA [A12U A33U] | 7.77e-05 ± 8.6e-06 | 0.00015 ± 1.6e-05 | 0.000348 ± 3.2e-05 | –
AUAAAAGCGCCUGAACUACAGAAAUGUAGUUGUCGAGGAGGACGUUUAUCGAAUUUUCGCUGUAUUCCUUCAAA [A12U A33U G43C G60C C61U G63U G66U C70U] | < 1e-05 | < 1e-05 | – | –
AUAAAAGCGCCUGAACUACAGAAAUGUAGUUGACGUAGAGGAGGAUUAUCGAAUUUUCGGCGGAUGCCUCCAAA [A12U A36U G37A U45A] | < 1e-05 | < 1e-05 | – | –
AUAAAAGCGCCUGAACUACAGAAAUGUAGUUGACGAGGAGGAGGUUUUACGAAUUUUCGGCGGAUGCCUCCAAA [A12U A48U U49A] | < 1e-05 | – | – | –
AUAAAAGCGCCUGAACUACAGAAAUGUAGUUGACGAGGAGGAGGUUUAUCGGAUUUUCGGCCGAUGCCUCCAAA [A12U A52G G62C] | < 1e-05 | – | – | –
AUAAAAGCGCCUGAACUACAGAAAUGUAGUUGACGAGGAGGAGGUUUAUCGUAUUUUCGGCGGAUGCCUCCAAA [A12U A52U] | 0.000233 ± 3.8e-05 | – | – | 7.11e-05 ± 2e-05
AUAAAAGCGCCUGAACUACAGAAAUGUAGUUGACGAGGAGGAGGUUUAUCGUAUUUUCGACGGAUGCCUCCAAA [A12U A52U G60A] | < 1e-05 | – | – | –
AUAAAAGCGCCUGAACUACAGAAAUGUAGUUGACGAGGAGGAGGUUUAUCGACUUUUUGGCAGAUGCCUCCAAA [A12U A53C C58U G62A] | < 1e-05 | – | – | –
